The values that follow come from PubChem BioAssay AID1745853 (National Center for Advancing Translational Sciences (NCATS), 2022).

What all share (assay): Primary Screen for Target Class Profiling of Small Molecule Inhibitors of Methyltransferases
Assay [1] deals with Glycine N-methyltransferase (Homo sapiens) (UniProt Q14749). The note with it: purified enzyme, MTase-Glo SAH luminescence; measured here: GNMT inhibition; at 40 µM; stronger effect = lower value. The method in brief: (§1)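 Each enzyme was reacted with SAM and its substrate, with compounds tested once at 40 uM; SAH formed was read by MTase-Glo luminescence.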
Assay [2] concerns the target Guanidinoacetate N-methyltransferase (Homo sapiens) (UniProt Q14353). The note with it: purified enzyme, MTase-Glo SAH luminescence; measured here: GAMT inhibition; at 40 µM; stronger effect = lower value. The method, boiled down:
as §1

Assay [3] deals with Histamine N-methyltransferase (Homo sapiens) (UniProt P50135). Conditions: purified enzyme, MTase-Glo SAH luminescence; measured here: HNMT inhibition; at 40 µM; stronger effect = lower value. The method, boiled down:
as §1

The target of assay [4] is Nicotinamide N-methyltransferase (Homo sapiens) (UniProt P40261). Conditions: purified enzyme, MTase-Glo SAH luminescence; measured here: NNMT inhibition; at 40 µM; stronger effect = lower value. The method, boiled down:
as §1

In assay [5] the target is Phenylethanolamine N-methyltransferase (Homo sapiens) (UniProt P11086). The note with it: purified enzyme, MTase-Glo SAH luminescence; measured here: PNMT inhibition; at 40 µM; stronger effect = lower value. The method in brief: as §1

The other results are listed elsewhere or left out. Shown are side measurements of this screen, not its main read-out; they come without a call.
% is set by controls: 0 for no effect and ±100 for the full control effect.

With `O=C(c1ccc2c(=O)nc3c(-c4ccc(F)cc4)n[nH]n3c2c1)N1CCN(c2ccccc2)CC1`, the activity change, negative = inhibition is 0.323% in assay [1]; 3.31% in assay [2]; -2.23% in assay [3]; 2.07% in assay [4]; -0.614% in assay [5].
On to `CC1CCCN(c2nc3c(S(=O)(=O)c4ccccc4)nnn3c3ccc(Cl)cc23)C1` (stereo not given), for which the activity change, negative = inhibition is -5.79% in assay [1]; 1.43% in assay [2]; -4.27% in assay [3]; 1.09% in assay [4]; -9.13% in assay [5].
As for `CC1(C(=O)O)CCCC2(C)C3CC4C5CC3(CCC12)CC45C` (stereo not given), the activity change, negative = inhibition in assay [1] is -16.1%; in assay [2], -11.9%; in assay [3], 1.9%; in assay [4], -41.6%; in assay [5], -10.1%.
As for `CCOCCCNC(=O)CCc1nnc2n(Cc3ccc(F)cc3)c(=O)c3ccccc3n12`, the activity change, negative = inhibition in assay [1] was -9.07%; in assay [2], -0.519%; in assay [3], -0.444%; in assay [4], -0.927%; in assay [5], -9.76%.
Taken in the same sequence, the figures for `Cc1ccc(NC(=O)N2CCc3c(c4ccccc4n3CC3CC3)C2)cc1` were -20.5%, -12.5%, -65.5%, -21.6% and -19.5%.
For `CCC1c2ccc(C)n2CCN1C(=O)Nc1cc(C)cc(C)c1` (stereo not given), the activity change, negative = inhibition in assay [1] is -4.21%; in assay [2] it was 4.08%; in assay [3], -0.435%; in assay [4], 5.2%; in assay [5], -2.23%.
In the case of `O=C(NCc1ccncc1)C(=O)NCC(c1cccnc1)N1CCN(c2ccccc2)CC1` (stereo not given), the activity change, negative = inhibition is -4.66% in assay [1]; -5.88% in assay [2]; 9.61% in assay [3]; -2.3% in assay [4]; -2.69% in assay [5].
On to `C/C=C1/[C@H](O[C@@H]2O[C@H](CO)[C@@H](O)[C@H](O)[C@H]2O)OC=C2C(=O)O[C@@H]3C[C@@H](C(C)CO)[C@H](COC(=O)C[C@H]21)[C@H]3C` (stereo not given in full), for which the activity change, negative = inhibition was 1.22% in assay [1]; 4.32% in assay [2]; 8.21% in assay [3]; -9.13% in assay [4]; 5.55% in assay [5].
Regarding `Cc1ccc2nc(Nc3ccc4c(c3)n(C)c(=O)n4C)c(-n3nc(C)cc3C)nc2c1`, the activity change, negative = inhibition is -2.2% in assay [1]; 1.23% in assay [2]; -4.87% in assay [3]; 4.1% in assay [4]; -11.3% in assay [5].
In the case of `Cc1ccc(N2CCN(S(=O)(=O)c3ccc4[nH]c5c(c4c3)CCCC5)CC2)c(C)c1`, the activity change, negative = inhibition worked out at 5.41% in assay [1]; 0.278% in assay [2]; 1.49% in assay [3]; 3.88% in assay [4]; 3.24% in assay [5].
Taken in the same sequence, the figures for `CNC(=O)[C@@H](C1CCCCC1)N1CCC[C@H]1C(=O)NCCN1CCOCC1` were -7.22%, -9.69%, -4.33%, -11.6% and 6.25%.
Taken in the same sequence, the figures for `CC(C#N)C(C)O[C@@H]1O[C@H](CO)[C@@H](O)[C@H](O)[C@H]1O` (stereo not given in full) were 4.89%, 5.7%, 12.1%, -5.89% and 6.43%.
On to `C=C1C(OC(=O)/C(C)=C\C)[C@@]23CCC4[C@@](C)(CCC[C@@]4(C)C(=O)O)C2CC[C@H]1C3OC(C)=O` (stereo not given in full), for which the activity change, negative = inhibition is -1% in assay [1]; -7.68% in assay [2]; 0.983% in assay [3]; -20.5% in assay [4]; -2.48% in assay [5].
On to `CCC1c2ccc(C)n2CCN1C(=O)Nc1cc(Cl)ccc1C` (stereo not given), for which the activity change, negative = inhibition in assay [1] is -1.8%; in assay [2] it was 3.94%; in assay [3] it was -5.11%; in assay [4] it was -14.5%; in assay [5], -4.27%.
For the compound `CCCn1c(=O)c2cc(Cl)ccc2n2c(=O)n(CC(=O)N3CCN(c4ccc(F)cc4)CC3)nc12`, the activity change, negative = inhibition was -2.92% in assay [1]; 1.44% in assay [2]; 4.31% in assay [3]; -7.84% in assay [4]; -1.91% in assay [5].
Consider `O=C(Cc1cccs1)N1CCOc2ccc(CN3CCCCC3)cc2C1`, for which the activity change, negative = inhibition is -8.05% in assay [1]; -7.03% in assay [2]; -37.7% in assay [3]; -13.2% in assay [4]; -10.3% in assay [5].
